# The other results are listed elsewhere or left out.
# Target: no compound (DMSO)
# Assay: log2 fold change of degron read counts, EGFP-low vs EGFP+ sorted cells; higher = lower degron-EGFP level without compound (poor expression or instability)
# Conditions: compound: DMSO control; 18 h
# 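Note: jurkat cells carrying a lentiviral library of mutant zinc finger degrons fused to EGFP plus mCherry, mCherry+ cells FACS sorted, degron abundance counted by next-generation sequencing.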
row,Sequence,log2 fold change of degron read counts
1,FRCEICGHHFTQKGNLLRHIKL,-0.896
2,FMCDICGALFTQKGNLLRHIKL,-0.879
3,FFCPICGAEFTQKGNLLRHIKL,-0.127
4,FQCDICGAYFTQKGNLLRHIKL,-0.918
5,FKCDICGAMFTQKGNLLRHIKL,-1.43
6,FICEICGHFFTQKGNLLRHIKL,-0.776
7,FACEICGHGFTQKGNLLRHIKL,-1.18
8,FRCEQCGAQFTQKGNLLRHIKL,-1.63
9,FKCEQCGAHFTQKGNLLRHIKL,-1.28
10,FGCEICGRMFTQKGNLLRHIKL,-0.636
11,FMCNVCGAYFTQKGNLLRHIKL,0.0957
12,FCCDQCGAGFTQKGNLLRHIKL,-0.619
13,FYCPICGRQFTQKGNLLRHIKL,-1.45
14,FDCNICGAIFTQKGNLLRHIKL,-0.252
15,FNCNQCGRMFTQKGNLLRHIKL,0.0432
16,FDCPICGRLFTQKGNLLRHIKL,0.105
17,FKCEQCGAAFTQKGNLLRHIKL,-2.66
18,FNCNICGALFTQKGNLLRHIKL,0.345
19,LLCEICGFNCTQKGNLLRHIKL,0.377
20,FSCEICGAFFTQKGNLLRHIKL,-1.65
21,FSCNQCGALFTQKGNLLRHIKL,-0.159
22,FECEICGAVFTQKGNLLRHIKL,-1.56
23,LDCNQCGFKCTQKGNLLRHIKL,0.151
24,LECNQCGFCCTQKGNLLRHIKL,-0.272
25,FTCDICGAHFTQKGNLLRHIKL,-0.755

row,Sequence,log2 fold change of degron read counts
1,FICDICGAPFTQKGNLLRHIKL,-0.732
2,LECEICGFVCTQKGNLLRHIKL,-0.697
3,FRCPICGAKFTQKGNLLRHIKL,0.219
4,LWCNQCGFECTQKGNLLRHIKL,0.919
5,FDCEQCGATFTQKGNLLRHIKL,-2.93
6,LHCNQCGFTCTQKGNLLRHIKL,0.105
7,FRCDICGADFTQKGNLLRHIKL,-1.53
8,FWCPICGHGFTQKGNLLRHIKL,2.69
9,FECPICGAAFTQKGNLLRHIKL,-0.59
10,FACPVCGAIFTQKGNLLRHIKL,0.00517
11,FQCEQCGAEFTQKGNLLRHIKL,-1.92
12,FECDVCGACFTQKGNLLRHIKL,-0.67
13,FICEICGAFFTQKGNLLRHIKL,-0.723
14,FRCPICGRWFTQKGNLLRHIKL,1.03
15,FDCPICGHIFTQKGNLLRHIKL,-0.205
16,FYCPICGAHFTQKGNLLRHIKL,-0.0571
17,FFCEICGASFTQKGNLLRHIKL,-0.933
18,FSCPICGHAFTQKGNLLRHIKL,-0.0976
19,FVCEICGREFTQKGNLLRHIKL,-2.56
20,FCCPICGRTFTQKGNLLRHIKL,-0.533
21,FLCEICGAKFTQKGNLLRHIKL,-1.53
22,FNCPQCGADFTQKGNLLRHIKL,-2.08
23,FDCNQCGHLFTQKGNLLRHIKL,1.19
24,FACPICGAPFTQKGNLLRHIKL,0.733
25,FKCPICGALFTQKGNLLRHIKL,-0.515
